Experimental data reported in PubChem BioAssay AID686970 (National Center for Advancing Translational Sciences (NCATS), 2013).
Hit rate of the full screen: of about 360,000 compounds, about 6,000 (1.7%) were called active. The inconclusive results got no clear call from the source; some entries with a clear call stand among them for comparison. Calls come from the whole dose curve; as a rule, active = well fitted cell-killing curve with a large enough effect; inconclusive = small, poorly fitted or top-dose-only effect, or effect the other way; inactive = flat fitted curve, though single readings scatter. No potency is given beside an inconclusive call; the fits are too rough.

Assay: qHTS for induction of synthetic lethality in tumor cells producing 2HG: qHTS for the HT-1080-NT fibrosarcoma cell line;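 note: NT is the 2HG producing partner of a matched IDH1 knockdown line; nearly all actives have a fitted effect of over 55% in size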;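 for activity, negative = less viability: 0% = DMSO-treated cells and -100% = media-only wells without cells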
Settings: HT-1080-NT fibrosarcoma viability, CellTiter-Glo ATP luminescence, 48 h; activity, negative = less viability: at 46.1 µM (top of the series) unless noted
How it was run: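 HT-1080-NT fibrosarcoma cells (2HG-overproducing), 750 cells/well in RPMI with 5% FBS, dosed after 2 h and incubated 48 h at 37C. CellTiter-Glo luminescence normalized to DMSO and no-cell wells; concentration-response curves fitted and classed.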
Potency is the fitted concentration of half-maximal effect; tags give direction and shape of the fitted curve.

Compound	Potency	activity, negative = less viability
C/C(=N\N=C(/N)SC1CC(=O)N(c2cccc(Cl)c2)C1=O)c1cccs1 (centres undefined)	inconclusive [cytotoxic, single point]	
COc1cccc(-c2cccc(-c3nc(C(=O)NCc4ccc(Oc5ccccc5)cc4)cc4c3[C@H](CCO)N(S(=O)C(C)(C)C)C4)c2)c1 (some centres undefined)	inconclusive [cytotoxic, single point]	
Brc1ccc(N/N=C(/N=Nc2nn[nH]n2)c2ccccc2)cc1	inconclusive [cytotoxic, full curve]	
Cc1cc(NC(=O)CSc2nnc(-c3ccccc3)c(-c3ccccc3)n2)no1	active: 2.91 µM	
C#CCOCCOCCOCCNc1nc(N2CCN(C(=O)CCCCCCCCCCNC(=O)[C@@H](CCSC)n3cc(CCO)nn3)CC2)nc(N2CCN(C(=O)CCCCCCCCCCNC(=O)[C@H](CCCN=C(N)N)n3cc(C[C@@H](C)CC)nn3)CC2)n1	inconclusive [cytotoxic, single point]	
COc1cc(C(=O)Nc2nc3ccccc3[nH]2)ccc1OC(F)F	inconclusive [cytotoxic, single point]	
Cn1nc(CC(=O)NCc2ccc(C(F)(F)F)cc2)c2ccccc2c1=O	inconclusive [cytotoxic, partial curve]	
Cc1ccc(C(C)C)c(OCc2ccc(C(=O)N/N=C/c3ccc(O)cc3O)cc2)c1	active: 6.51 µM	
CN(C)CCCNC(=S)NCC(c1ccc(Cl)cc1Cl)c1c[nH]c2ccccc12 (centres undefined)	active: 20.6 µM	
Cc1onc(-c2ccccc2)c1C(=O)NNC(=S)NC(=O)/C=C/c1cccs1	inconclusive [cytotoxic, single point]	
O=C(O)C1(C(=O)O)CCC2(CCCCC2)CC1	inactive	
Cc1ccc(S(=O)(=O)n2cc(C=O)c3ccccc32)cc1	active: 16.4 µM	
Cc1ccc(S(=O)(=O)Nc2ccc(O)c3ncccc23)cc1	inconclusive [cytotoxic, partial curve]	
CCOc1ccccc1CN(Cc1ccco1)S(=O)(=O)c1ccc(-n2cnnn2)c(OC)c1	inconclusive [cytotoxic, single point]	
Nc1c(Cl)cc(N=Nc2ccccc2)cc1Cl	inconclusive [cytotoxic, single point]	
Cc1ccccc1C(=O)N1CCN(c2ccc(NC(=O)c3ccco3)cc2Cl)CC1	inconclusive [cytotoxic, single point]	
N#Cc1ccc(C(=O)Nc2nc3ccccc3[nH]2)cc1	inconclusive [cytotoxic, partial curve, poor fit]	
C=C1C(=O)O[C@@H]2[C@H]1[C@@H](OC(=O)/C(C)=C/C)C/C(C)=C\C(=O)/C=C(\C)[C@@H]2O	inconclusive [cytotoxic, single point]	
Nc1c(N(CCC2=CCCCC2)C(=O)CCCOc2ccccc2)c(=O)[nH]c(=O)n1Cc1ccccc1	inactive	
O=C(OCc1ccccc1)N(CCCCN(CCCNCc1ccccc1)C(=O)OCc1ccccc1)CCCNCc1ccccc1	inconclusive [cytotoxic, single point]	
O=c1nc(SCc2cccc(C(F)(F)F)c2)nc2ccccn12		inconclusive: -30.8% [cytotoxic]
N#Cc1ccc(NC(=O)Cn2cnc(S(=O)(=O)N3CCc4ccccc43)c2)cc1	inconclusive [cytotoxic, partial curve]	

Compound	Potency	activity, negative = less viability
COC(=O)c1cccc(OCCCN2CCC(C(O)(c3ccccc3)c3ccccc3)CC2)c1	inconclusive [cytotoxic, single point]	
O=S(=O)(Nc1ccc(O)c2ccccc12)c1ccc(OC(F)(F)F)cc1	active: 23.1 µM	
CC1C(=O)N(Cc2cn(Cc3ccco3)nn2)CCS(=O)(=O)N1Cc1ccc(-c2ccccc2C(F)(F)F)cc1 (centres undefined)	inconclusive [cytotoxic, single point]	
COc1ccc(C(=O)c2c(C)c(CCC#N)n3ccccc23)c(OC)c1		inconclusive: 30.9%
COc1cccc(N2CCN(C(=O)c3ccc(CS(=O)c4ccccc4C)o3)CC2)c1 (centres undefined)	active: 0.461 µM	
CS(=O)(=O)N1CCc2cc(C(=O)N3CCCC3)ccc21	inactive	
Nc1ccn([C@H]2C[C@H](O)[C@@H](CO)O2)c(=O)n1	inactive	
O=c1c2ccccc2nc2n1CCN2Cc1ccc(Cl)cc1	inconclusive [cytotoxic, single point]	
Cc1ccc(/C=N/NC(=O)COc2ccccc2-c2ccccc2)cc1	inconclusive [cytotoxic, partial curve, poor fit]	
O=C(CCNC(=O)c1ccccc1Cl)Nc1nc(-c2ccccc2Cl)cs1	inactive	
COc1cc(NC(=O)c2ccccc2Cl)c(OC)cc1NC(=O)CN1CCOCC1		inconclusive: 30.6%
CC1CC(C)CN(S(=O)(=O)c2ccc3c(c2)n(C)c(=O)c(=O)n3C)C1 (centres undefined)		inconclusive: 30.6%
COc1ccc(CNCc2ccc3ccccc3c2)c(OC)c1	inactive	
O=C(NC1CC(=O)N(c2ccccc2)C1)C1CC1 (centres undefined)	inactive	
S=C1NCN(Cc2cccnc2)CN1	inactive	
CCN(CC(=O)NC1CCS(=O)(=O)C1)C(C)C(=O)Nc1ccc(F)cc1 (centres undefined)	inactive	
CCOC(=O)CSc1nc(C2CC2)cc(-c2ccc(Cl)cc2)c1C#N	inactive	
O=C(Nc1cccc(C(F)(F)F)c1)c1cccnc1N1CCN(c2ccccc2)CC1	inconclusive [cytotoxic, single point]	
OC(c1ccccc1)c1nc(-c2csc3ccccc23)cs1 (centres undefined)		inconclusive: 2.08%
COc1cc2sc3ccc(C#Cc4ccccn4)cc3c(=O)c2cc1OC	inconclusive [cytotoxic, single point]	
CC1Cc2cc(S(=O)(=O)CCC(=O)NCc3ccco3)ccc2N1C(=O)C1CC1 (centres undefined)	inconclusive [cytotoxic, single point]	
Cc1cccc(N(CC(O)CON=C2c3ccccc3-c3ccccc32)S(C)(=O)=O)c1 (centres undefined)	inconclusive [cytotoxic, single point]	
